Legend:
human 2IgB7H3 = target: T1, human 2IgB7H3 (Homo sapiens, UniProt Q5ZPR3); experiment: SPR binding affinity for human 2IgB7H3 (Biacore 8K); conditions: analyte human 2IgB7H3
T1 construct: His tag; purchased ACRO (ACROBiosystems) B73-H52E2
T1 sequence (Q5ZPR3 29-316 isoform Q5ZPR3-2 limits assumed): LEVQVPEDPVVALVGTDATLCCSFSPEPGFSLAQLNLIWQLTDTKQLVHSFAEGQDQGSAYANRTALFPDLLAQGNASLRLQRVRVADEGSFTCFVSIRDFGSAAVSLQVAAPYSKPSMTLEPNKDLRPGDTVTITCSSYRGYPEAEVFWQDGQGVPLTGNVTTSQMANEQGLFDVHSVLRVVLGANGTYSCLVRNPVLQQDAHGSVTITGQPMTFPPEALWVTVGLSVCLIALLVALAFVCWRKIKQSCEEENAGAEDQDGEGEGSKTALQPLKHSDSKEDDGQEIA
Method: (§1) The affinity of antibodies for human 2IgB7H3 was determined using surface plasmon resonance (SPR). The affinity of antibodies for human 2IgB7H3 was determined by Biacore 8K. An activator was prepared by mixing 400 mM EDC and 100 mM NHS (GE) immediately prior to injection into the channel. The CM5 sensor chip was activated for 420 seconds with the activator. Goat anti-human Fc IgG (30 μg/mL in 10 mM NaAc, pH 4.5) was then injected into the channel at a flow rate of 10 μL/min for 420 seconds. The chip was deactivated by 1 M ethanolamine hydrochloric acid. The antibodies diluted in running buffer (1×HBS-EP+) were injected into the channel at a flow rate of 10 μL/min for 30 seconds. Seven concentrations (500 nM, 250 nM, 125 nM, 62.5 nM, 31.25 nM, 15.625 nM, and 7.813 nM) of analyte human 2IgB7H3 were injected sequentially into the channel at a flow rate of 30 μL/min for an association phase of 120 seconds, followed by dissociation of 300 seconds. Glycine (10 mM, pH 1.5) was injected as regeneration buffer after the dissociation phase.
(§2) The sensorgrams for the reference channel and the buffer channel were subtracted from the test sensorgrams. The experimental data were fitted with a 1:1 binding model. The molecular weight of the human 2IgB7H3 used in the calculation was 25.2 kDa.
(§3) The experimental data were fitted by a 1:1 binding model bundled with the Biacore 8K evaluation software.

cynomolgus monkey B7H3 = experiment: SPR binding affinity for cynomolgus monkey B7H3 (Biacore 8K); conditions: analyte cynomolgus monkey B7H3
Method: as §1, with “cynomolgus monkey B7H3” for “human 2IgB7H3”, “Fe” for “Fc”, “Seven concentrations (500 nM, 250 nM, 125 nM, 62.5 nM, 31.25 nM, 15.625 nM, and 7.813 nM) of analyte human 2IgB7H3 were injected sequentially into the channel at a flow rate of 30 μL/min for an association phase of 120 seconds, followed by dissociation of 300 seconds.” left out
as §2, with “data for 6 analyte concentrations (50 nM, 25 nM, 12.5 nM, 6.25 nM, 3.125 nM, and 1.563 nM)” for “data”, “cynomolgus monkey B7H3” for “human 2IgB7H3”, “49” for “25.2”
as §3

[1] = system: LD1-2027-410644 patient-derived prostate cancer tumor cells; experiment: Prostate cancer micro patient-derived xenograft model LD1-2027-410644; type: in vivo, mice
Description: Tumor tissues of patient-derived prostate cancer transplantation models LD1-2027-410644 and LD1-2034-362055 (obtained from Shanghai LIDE Biotech., Co. Ltd.) were inoculated subcutaneously into mice. When the tumors grew to 500-800 mm^3, the tumor tissues were surgically and aseptically removed from the mice, and non-tumor tissues and necrotic tissues were removed in a biosafety cabinet to ensure the purity of the inoculated tumor tissues. The mice were euthanized. The treated tumor tissues were cut into small tumor masses of 1-3 mm^3, and the tumor masses were digested with the collagenase digest at 37° C. for 1-2 h. The supernatant was removed by centrifugation at 1200 rpm for 3 min, and the cells were resuspended in 10 mL of PBS containing 1% FBS and counted on a hemocytometer. […] The cells were resuspended in an RPMI1640 cell culture medium and counted on a hemocytometer. […]
The cell suspension was placed into capsules. […] The day of inoculation was recorded as day 0, and the animals were subjected to a single administration by tail vein injection. […]
At the end of the experiment, the mice were euthanized. The capsules were removed and cell viability assay was performed with CellTiter-Glo, i.e., the capsules were cut into pieces, PBS and CellTiter-Glo™ reagent with the same volume were added, and the luminescence value was measured. […]

[2] = system: patient-derived prostate cancer PR9586 tumor tissues; experiment: PR9586 prostate cancer patient-derived xenograft model; type: in vivo, mice; conditions: 10 mg/kg i.v. once every two weeks x2, Day 25
Description: Patient-derived prostate cancer PR9586 and PR9587 tumor tissues were separately inoculated subcutaneously into NPG or NOG mice. When the tumors grew to about 500-800 mm^3, the tumor tissues were collected and the mice were euthanized. The collected tumor tissues were cut into tumor masses of a diameter of 2-3 mm and then inoculated subcutaneously into the right anterior scapula of the NPG or NOG mice. When the mean tumor volume of the tumor mass-inoculated NPG or NOG mice reached about 100-200 mm^3, the mice were randomized into groups with 6 mice in each of the blank control group and the treatment group.
The experiment ended on day 25 (for mice inoculated with PR9586) or on day 48 (for mice inoculated with PR9587). After the administration was started, the body weight and tumor size of the mice were measured twice a week. Calculation formula for tumor volume: Tumor volume (mm^3)=½×(a×b^2) (where a represents long diameter and b represents short diameter).
At the end of the experiment, mice were euthanized and tumor inhibition rate TGI was calculated as follows:
[formula] • wherein, • Ti: mean tumor volume of the treatment group on day i of administration; • T0: mean tumor volume of the treatment group on day 0 of administration; • Vi: mean tumor volume of the negative control group on day i of administration; • V0: mean tumor volume of the negative control group on day 0 of administration.

B1: W301088-1.145.16-z3-p1-uIgG1KV320: humanized anti-B7H3 IgG1 antibody, heavy chain SEQ ID NO: 12, light chain SEQ ID NO: 13 (antibody)
heavy: QVQLQESGPGLVKPSQTLSLTCTVTDYSITGDYAWNWIRQHPGKGLEWIGYISYSGSTSYNPSLQSRVTISRDTSKNQFSLKLSSVTAADTAVYFCARSLGRRWYFVVWGQGTTVTVSSASTKGPSVFPLAPSSKSTSGGTAALGCLVKDYFPEPVTVSWNSGALTSGVHTFPAVLQSSGLYSLSSVVTVPSSSLGTQTYICNVNHKPSNTKVDKRV[not shown - human IgG1 Fc with changes]
light: DIVMTQSPDSLAVSLGERATINCKSSQSLLQSSNQKNYLAWYQQKPGQPPKLLIYFASTRESGVPDRFSGSGSGTDFTLTISSLQAEDVAVYYCQQHYSAPWTFGGGTKVEIKRTVAAPSVFIFPPSDEQLKSGTASVVCLLNNFYPREAKVQWKVDNALQSGNSQESVTEQDSKDSTYSLSSTLTLSKADYEKHKVYACEVTHQGLSSPVTKSFNRGEC
Human 2IgB7H3
  ka: 303000 M⁻¹ s⁻¹
  kd: 0.0141 s⁻¹
Cynomolgus monkey B7H3
  ka: 527000 M⁻¹ s⁻¹
  kd: 3.02e-05 s⁻¹

B2: WBP301088-X2: antibody WBP301088 conjugated to linker-payload X2; the DAR6 batch was used in Examples 3-11 (conjugate)
heavy: QVQLQESGPGLVKPSQTLSLTCTVTDYSITGDYAWNWIRQHPGKGLEWIGYISYSGSTSYNPSLQSRVTISRDTSKNQFSLKLSSVTAADTAVYFCARSLGRRWYFVVWGQGTTVTVSSASTKGPSVFPLAPSSKSTSGGTAALGCLVKDYFPEPVTVSWNSGALTSGVHTFPAVLQSSGLYSLSSVVTVPSSSLGTQTYICNVNHKPSNTKVDKRV[not shown - human IgG1 Fc with changes]
light: B1 light
[1]; 10 mg/kg single tail vein injection, 10 days, LD1-2027-410644 model
  Mean signal value (CellTiter-Glo cell viability at endpoint): 85868.38
[1]; micro PDX models LD1-2027-410644 and LD1-2034-362055, 10 mg/kg
  anti-tumor effect (in words): significant anti-tumor effect
[2]
  T/C: 0.68%
  TGI: 99.32%
  Tumor volume (mean ± SEM): 17.08 ± 6.02 mm^3
